The text below walks through data of a collection of fitness landscapes (doi:10.1038/s41467-024-54723-y).

Over roughly 18,000 sequences, “TetR repression strength (sort-seq, GFP reporter)” has its median near 0.23; the highest 2% begin near 0.68. Some of the results follow.

UniProt P04483, sequence (P04483 whole entry): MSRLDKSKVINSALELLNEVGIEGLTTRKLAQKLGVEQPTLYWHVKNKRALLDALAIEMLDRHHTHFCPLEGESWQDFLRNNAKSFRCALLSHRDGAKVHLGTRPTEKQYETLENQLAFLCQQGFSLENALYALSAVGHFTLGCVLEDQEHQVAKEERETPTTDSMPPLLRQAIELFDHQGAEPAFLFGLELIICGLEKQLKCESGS

The target of the test is TetR (class B, Tn10) (UniProt P04483). Description: TetR repression strength (sort-seq, GFP reporter) (relative to tetO2 = 1); higher = stronger repression. To be noted: E. coli. The essentials:
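Escherichia coli SIG10-MAX cells carried a low-copy plasmid library in which eight operator positions were randomized between a constitutive promoter and sfGFP, and TetR was expressed constitutively. After 5 h of growth at 37 °C in LB with 50 µg/mL chloramphenicol, 10^6 cells were FACS-sorted into 13 fluorescence bins, and each bin was Illumina-sequenced. Repression strength was the top bin index plus one minus the read-weighted mean bin, divided by the value for the unaltered operator. Across three independent transformations, only library members with ≥30 reads in every replicate and a CV ≤0.5 were averaged.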
Regarding TCCCTAGGAGTCCGAGAGA, the TetR repression strength was 0.187.
Consider TCCCAGTTAGTTGTTGAGA, for which the TetR repression strength amounted to 0.0531.
On to TCCCGTTAAGTATTTGAGA, for which the TetR repression strength was found to be 0.246.
The value for TCCCAGGTAGTACTCGAGA was 0.107; that for TCCCGGGGAGTTGCGGAGA was 0.0506.
The value for TCCCAATCAGTGGTGGAGA was 0.139; that for TCCCAATCAGTGTCAGAGA was 0.335; that for TCCCTCAGAGTGGAGGAGA was 0.169.
In the case of TCCCGGGCAGTATCGGAGA, the TetR repression strength turned out to be 0.128.
Under TCCCCTTGAGTCTTAGAGA stands 0.359.
Under TCCCTTGAAGTTAGTGAGA stands 0.184; under TCCCGGCTAGTGTGTGAGA, 0.238.
In turn, TCCCTTGTAGTTGAGGAGA returned a TetR repression strength of 0.251.
Under TCCCCTTCAGTGGAGGAGA stands 0.65; under TCCCTAGGAGTGGTAGAGA, 0.278.
In turn, TCCCTGTAAGTATGGGAGA returned a TetR repression strength of 0.174.
For TCCCAATAAGTGCGGGAGA, the TetR repression strength turned out to be 0.0561.
Sequence TCCCTTCGAGTGATGGAGA came in with a TetR repression strength of 0.307.
Sequence TCCCGGCCAGTCGTGGAGA showed a TetR repression strength of 0.0471.
The value for TCCCCTCCAGTCAGTGAGA was 0.383; that for TCCCACTAAGTGAGGGAGA was 0.391; that for TCCCTGGTAGTGTAAGAGA was 0.217.
In turn, TCCCCTCGAGTGTAGGAGA gave a TetR repression strength of 0.305.
TCCCAGAGAGTATACGAGA: the TetR repression strength turned out to be 0.205.
On to TCCCCGTGAGTAGTGGAGA, for which the TetR repression strength was found to be 0.229.
Regarding TCCCAGAGAGTGCCTGAGA, the TetR repression strength was determined as 0.141.
The sequence TCCCGACTAGTAGAAGAGA registered a TetR repression strength of 0.316.
Sequence TCCCTTATAGTCACAGAGA displayed a TetR repression strength of 0.268.
In turn, TCCCGTGTAGTCTAGGAGA displayed a TetR repression strength of 0.272.
As for TCCCTCTCAGTGCTTGAGA, the TetR repression strength is 0.661.
The value for TCCCCGATAGTCTGGGAGA was 0.0204; that for TCCCGTAAAGTCGACGAGA was 0.0349.
In the case of TCCCTAATAGTCGGGGAGA, the TetR repression strength turned out to be 0.311.
Regarding TCCCGATCAGTAGCAGAGA, the TetR repression strength was 0.207.
In turn, TCCCGATCAGTTGGCGAGA returned a TetR repression strength of 0.18.
TCCCTACGAGTGACGGAGA returned a TetR repression strength of 0.0954.
As for TCCCCTGTAGTCGCGGAGA, the TetR repression strength came to 0.253.
TCCCTCCTAGTGGGCGAGA showed a TetR repression strength of 0.0815.
Take TCCCCCTTAGTTCGCGAGA: the TetR repression strength is 0.107.
TCCCTTCAAGTTTGTGAGA gave a TetR repression strength of 0.418.
With TCCCCTGCAGTGGGGGAGA, the TetR repression strength stood at 0.225.
The value for TCCCTAGGAGTACGAGAGA was 1.01; that for TCCCTTCTAGTCCCGGAGA was 0.415; that for TCCCGGTGAGTCCTTGAGA was 0.126.
The sequence TCCCTCTGAGTAAGCGAGA returned a TetR repression strength of 0.318.
Under TCCCCCGAAGTGTAAGAGA stands 0.207; under TCCCTATAAGTGGCCGAGA, 0.719; under TCCCCACGAGTCGGTGAGA, 0.207.
Consider TCCCCGATAGTCCTGGAGA, for which the TetR repression strength stood at 0.33.
Regarding TCCCGGAAAGTATGTGAGA, the TetR repression strength is 0.0538.
Sequence TCCCTGTCAGTGTCCGAGA gave a TetR repression strength of 0.348.
TCCCGTCCAGTTTACGAGA returned a TetR repression strength of 0.238.
The value for TCCCCCTCAGTACGTGAGA was 0.397.
In turn, TCCCGGAAAGTTGCCGAGA had a TetR repression strength of 0.494.
With TCCCCTGTAGTTGCCGAGA, the TetR repression strength worked out at 0.264.
The sequence TCCCGACAAGTGCTAGAGA had a TetR repression strength of 0.273.
The sequence TCCCGTTCAGTGAACGAGA registered a TetR repression strength of 0.617.
TCCCGGTTAGTGTTTGAGA came in with a TetR repression strength of 0.601.
Consider TCCCCCGTAGTTGTAGAGA, for which the TetR repression strength was 0.27.
Under TCCCGCCGAGTTGTCGAGA stands 0.393.
As to TCCCAATCAGTGAGAGAGA, the TetR repression strength turned out to be 0.538.
In the case of TCCCGCGTAGTATCGGAGA, the TetR repression strength was 0.187.
As for TCCCATTCAGTACTGGAGA, the TetR repression strength turned out to be 0.335.
The value for TCCCGCGCAGTCCGGGAGA was 0.0991; that for TCCCATGTAGTGACGGAGA was 0.204; that for TCCCAACAAGTCCTTGAGA was 0.307.
TCCCTCAGAGTTTGCGAGA returned a TetR repression strength of 0.244.
Regarding TCCCCGTAAGTGGGCGAGA, the TetR repression strength was determined as 0.127.
In turn, TCCCTCATAGTGGGTGAGA gave a TetR repression strength of 0.0921.
As for TCCCAGCGAGTCCAGGAGA, the TetR repression strength was determined as 0.27.
As for TCCCGTAGAGTCATCGAGA, the TetR repression strength was 0.195.
The sequence TCCCTATCAGTTACTGAGA returned a TetR repression strength of 0.698.
Under TCCCTCGGAGTTGGGGAGA stands 0.227; under TCCCTGGAAGTGGGAGAGA, 0.121.
The value for TCCCAATCAGTGCTAGAGA was 0.458; that for TCCCATGTAGTACGGGAGA was 0.142; that for TCCCCGTAAGTGTGTGAGA was 0.0801.
In turn, TCCCGGTCAGTATGAGAGA gave a TetR repression strength of 0.263.
TCCCAGAGAGTGGCGGAGA had a TetR repression strength of 0.247.
Consider TCCCAAGTAGTGCATGAGA, for which the TetR repression strength turned out to be 0.242.
For the sequence TCCCCTCCAGTGAGAGAGA, the TetR repression strength is 0.305.
TCCCGTCTAGTATCTGAGA came in with a TetR repression strength of 0.331.
Regarding TCCCGAGCAGTCACGGAGA, the TetR repression strength came out at 0.0718.
In the case of TCCCTGATAGTGGGCGAGA, the TetR repression strength was found to be 0.183.
Sequence TCCCCGTTAGTAAAGGAGA returned a TetR repression strength of 0.256.
TCCCGACAAGTTGGTGAGA: the TetR repression strength amounted to 0.0502.
Turning to TCCCAAACAGTTGCGGAGA, the TetR repression strength is 0.456.
In the case of TCCCTTGGAGTGAGAGAGA, the TetR repression strength was 0.146.
In the case of TCCCTGCTAGTGATAGAGA, the TetR repression strength was 0.638.
In turn, TCCCGTGGAGTGCCGGAGA had a TetR repression strength of 0.408.
On to TCCCTGCTAGTTTCGGAGA, for which the TetR repression strength turned out to be 0.136.
Under TCCCCGGGAGTGTCGGAGA stands 0.239.
In turn, TCCCTTGTAGTGTGGGAGA returned a TetR repression strength of 0.314.
Consider TCCCATTGAGTAAGAGAGA, for which the TetR repression strength turned out to be 0.106.
On to TCCCGCGAAGTTGCTGAGA, for which the TetR repression strength was determined as 1.1.
In turn, TCCCCATTAGTCGCTGAGA yielded a TetR repression strength of 0.638.
TCCCTTGTAGTGCTTGAGA yielded a TetR repression strength of 0.225.
As for TCCCTCGGAGTTTCCGAGA, the TetR repression strength amounted to 0.202.
Consider TCCCTATCAGTCGCCGAGA, for which the TetR repression strength was found to be 0.455.
Under TCCCCGCAAGTGTTCGAGA stands 0.285; under TCCCGGTTAGTCATAGAGA, 0.546.
Take TCCCTAGAAGTACCGGAGA: the TetR repression strength was 0.461.
